Data reported in paper PMC12136788.
The other results are listed elsewhere or left out.

T1: UNK ZnF1-3 (human, UniProt Q9C0B0 31-174)
T1 sequence: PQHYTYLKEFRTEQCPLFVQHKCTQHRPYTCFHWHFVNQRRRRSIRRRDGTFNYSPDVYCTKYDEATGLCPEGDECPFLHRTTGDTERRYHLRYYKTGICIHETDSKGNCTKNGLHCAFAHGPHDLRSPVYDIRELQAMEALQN

B1: chr4:175158712:175158713:-_ENSG00000164117_ENST00000503293|hu_mus|motif|central (ssRNA)
RNA: GGGAGUUCUACAGUCCGACGAUCACGGCGCGUAUUUCGAAUAAACUCUCUUUUUGACAUUUUAUUCUUCACAUGAGGACGGGUGAGGUCAAUGGAAAGUAGAAUCAAAGAGUAGCACAGUACAUAGACAGCAUCAGGACUAAGCAACAGAGGAUUGAGCAUCA
B2: chr7:54825262:54825263:-_ENSG00000132432_ENST00000352861|hu_hu|hu_hu_hu_mus_False|18_28 (ssRNA)
RNA: GGGAGUUCUACAGUCCGACGAUCCUGCCGGCUGGGCUCCACAAACUGCAUUACCUGAUCCAUGUUUGUUGGAUGGCGGAUUGAGAGCGUAGAGACACGUAGCUCAGGGAGCUUGCUGAUGGAGGCCAACCGGAAGCUGGCAACCAACAGAGGAUUGAGCAUCA
B3: chr2:156005782:156005783:-_ENSMUSG00000027620_ENSMUST00000109587|mus_hu|FALSE|FALSE (ssRNA)
RNA: GGGAGUUCUACAGUCCGACGAUCGCGGAACCGCCCAGCCCGAAUAUCGGGUUCCAAGGACGGCUAGGCCCGAGAGAAUCUAAAAAAAACAAUGGAAUUAGAGAAGCCCACGCGGGAGAGCAGGACGGCGGCUUCGGCAGCUCACAACAGAGGAUUGAGCAUCA
B4: chr1:8022837:8022838:+_ENSG00000116288_ENST00000493373|hu_mus|motif|central (ssRNA)
RNA: GGGAGUUCUACAGUCCGACGAUCUCUCCUCUGCUCCUUUGGCCAGGAUGACCAGAGCUCUUUUGGAAGCCAUUUCGGUUUCUUAAAGACUGCAGCCGCGCCUCCUCCACCCACGCGAAGCCACCGCUAGUCCGCAGGAACCUCCAACAGAGGAUUGAGCAUCA
B5: chr1:39494447:39494448:+_ENSG00000168653_ENST00000372967|hu_mus|hu_hu_hu_mus_False|48_78 (ssRNA)
RNA: GGGAGUUCUACAGUCCGACGAUCGCACCGAGCGGCGUUCUUAUAGGGCUGUUCUGCACUCUGGAUUAUAAAGUGCCGGUCCAGGCUAAGGCCGAACUUUUUCUGUAUGUCAAGGAAAGGCAUGGCUCUGCAGUGCCCUUGUCACAACAGAGGAUUGAGCAUCA
B6: chr1:173703207:173703208:+_ENSG00000076321_ENST00000209884|hu_mus|FALSE|FALSE (ssRNA)
RNA: GGGAGUUCUACAGUCCGACGAUCAGCAGCAGGCAAGAGAGUCUGAACAUUGCCCUCUUCCACAGUGAUCUGGGAGGUAUAUGCAAAGUCAAUCAGGAGCUCCAUGGCCCUCUCAUCUAUGUCUCGGAUCACUACUUCUGUCUGCAACAGAGGAUUGAGCAUCA
B7: chr1:82727704:82727705:+_ENSMUSG00000026150_ENSMUST00000078332|mus_hu|FALSE|FALSE (ssRNA)
RNA: GGGAGUUCUACAGUCCGACGAUCCAGGGGUUUAAAGGGAGUUGACUGAAUAAGGUCAAGAUCUGCUGGUCUUGAAAAUGAAACAUCUUCAUUAUUUCCUGCUACAACAAUCCUCUCCGGAACUUGCAUUAUCACACUAGCAUUCAACAGAGGAUUGAGCAUCA
B8: 109517254_109517374_2683_CDS_ENSG00000085433_ENST00000369962|human|control|control (ssRNA)
RNA: GGGAGUUCUACAGUCCGACGAUCAGGAUGAUAACUUUGUACCAUUCUUCCUCCUCUUAUGUCAUACAACAUGCAGCUAGAAUCUUCUUGACCUGUGGCUAAGAGACGACCACUGGGAUCUACAGCUACAGAUGCCACUGCACUCAACAGAGGAUUGAGCAUCA
B9: 56392320_56392440_10171_CDS_ENSG00000151914_ENST00000244364|human|control|control (ssRNA)
RNA: GGGAGUUCUACAGUCCGACGAUCUUCUCCUUUCAGAACCUGAGUUUCAUAUGAAAGUAAUUCCACCUCCACUUUGUCCAGCCAGGUACACAGCUCUUCGUGUGUGGAGUGCAGCCGCCUUGCAAGCUGCAGCGCCUGUUCCAGCAACAGAGGAUUGAGCAUCA
B10: chr4:52453130:52453131:+_ENSMUSG00000028312_ENSMUST00000117280|mus_hu|FALSE|FALSE (ssRNA)
RNA: GGGAGUUCUACAGUCCGACGAUCUCCUCUGAGCAUAGGACUUGAAUCCCUCUAGAAUAAUUGACUUAAUAUGCAUUUUCGAUACUGUCUUGGGUCAGCAAACCUCUGACAGGAAUCAAACAGGCCACAAACCAGUUCGCUGCCCAACAGAGGAUUGAGCAUCA
B11: chr7:135612270:135612271:-_ENSG00000105887_ENST00000393085|hu_mus|hu_hu_hu_mus_False|1_48 (ssRNA)
RNA: GGGAGUUCUACAGUCCGACGAUCGUUUUUUUCUGAGAUGUUAAAUAGUACUUCAGUGGAAAACAAAACUUAACCUUUUAUUAAUGCAUGUAGUACCAAAAGCAGACAUUUUAGCUUCAUUUAUUCAAAAAUAUUAAGAACAUUCAACAGAGGAUUGAGCAUCA
B12: chrX:123197699:123197700:+_ENSG00000101972_ENST00000371157|hu_mus|FALSE|FALSE (ssRNA)
RNA: GGGAGUUCUACAGUCCGACGAUCUGUGUGCUUCUCUACAAUAUUUCGGAUCUGGCGCAAUAAGGCAUCCAAAUGCUUUUCUAAUCGUCCAGUGGUGUAUAUCUCCAAAUCAAAGUACUGAGGUAACUGCAACAAAUUGGUCACCAACAGAGGAUUGAGCAUCA
B13: chr1:111660612:111660613:-_ENSG00000156171_ENST00000539140|hu_mus|FALSE|FALSE (ssRNA)
RNA: GGGAGUUCUACAGUCCGACGAUCAAAAAAGUCUAGACAUGUUUUUAGAUGGACUUCUUAACAACAUCCUUUAAGAAAACUUACCAGAUGGCUUAUUACAUUUUUCCUGAUAUCAUGUUUCAUUAGUGUCACUGUCAGCCUUGACAACAGAGGAUUGAGCAUCA
B14: 25570260_25572684_1282_CDS_ENSG00000170558_ENST00000399380|human|control|control (ssRNA)
RNA: GGGAGUUCUACAGUCCGACGAUCAUUUUCUGCAGCAACAGUAAGGACAAACAUCCUAUUUGUUUCAAAGUCGAUUGGUUUGACCACGGUGACUAACCCGUCGUUGCUGUUUGGGUCGGUCUGGAUGGCGAACCGUCCAGUAGGCAACAGAGGAUUGAGCAUCA
B15: chr1:46159212:46159213:+_ENSG00000159596_ENST00000372025|hu_mus|hu_hu_hu_mus_True|8_28 (ssRNA)
RNA: GGGAGUUCUACAGUCCGACGAUCUCUGAUCCCUCCCAAGAAAGCUAGGAAACCGGCUCCAUAAGCCAUCUGAGUGAAAGCUAGGACGGGGAUAUAAGACUUUGUUAUCAGCAUGACAAGUGGGGGAGCAACGAAGGGGAUUAACAACAGAGGAUUGAGCAUCA
B16: chr2:73747962:73747963:-_ENSMUSG00000018770_ENSMUST00000018914|mus_mus|FALSE|FALSE (ssRNA)
RNA: GGGAGUUCUACAGUCCGACGAUCAGAGCCCUCUCCAGUCCUAGUCUCUGGCCGAGAUAACACUGAUGCAGAAAUUGGUCUAUAUGCAACUCUGGAUCCAGCUCGGAUCAGAGCGGGGGUGCGGGCGAGCUUGGCGCAGGCGAACAACAGAGGAUUGAGCAUCA
B17: chr1:39494447:39494448:+_ENSG00000168653_ENST00000372967|hu_hu|motif|central (ssRNA)
RNA: GGGAGUUCUACAGUCCGACGAUCGCAUCGACCAGCCAUCUUGUAGGGCUGUUCACCACUCUGGAUUGUCAACCAUCGAUCGGUGUUAAGGCCGAACCUUUUCUGGAUGUCCAAGAAAGGCAUGGCCGAUGCUCGUGCCCUUGACAACAGAGGAUUGAGCAUCA
B18: chr3:95749504:95749505:+_ENSMUSG00000015749_ENSMUST00000165307|mus_hu|motif|central (ssRNA)
RNA: GGGAGUUCUACAGUCCGACGAUCUAUUAUAGCAAACUGUAAUUUCAGUUAAUUUAUAAAUAAGGAAUGAAAUGCACCAUACGGCACCUGUGUAAAAGUGAUCAUGUUUUAAUUAUGGGCUAAAAAUGACUAAUACAGUAAGCUCAACAGAGGAUUGAGCAUCA
B19: chr5:144935201:144935202:+_ENSMUSG00000038970_ENSMUST00000041804|mus_mus|motif|central (ssRNA)
RNA: GGGAGUUCUACAGUCCGACGAUCCAUUAGAUCAAAUAUUUUUUGGUGACUGGGCAGGUCAUCUGCUUUGUCAAGGUCACGGAAUAGGUUGAAAGGGCUCCCAGGGAUGCUGGUAGCACGUGAGUCCUCGGUAGAGCUGGCUUCCAACAGAGGAUUGAGCAUCA
B20: chr8:13147844:13147845:+_ENSMUSG00000031446_ENSMUST00000016680|mus_mus|motif|central (ssRNA)
RNA: GGGAGUUCUACAGUCCGACGAUCAAUAUUAACAAUUUGUAGACACAAUGAACUUAAAAAUAAGAAGUAGAAAUAGAAAUCGGUUUGGUCUUUCAGAGACCACAUCAUAGAACUCAUAAAUGAAAAUGUACAAAUAUAGAAAUGCAACAGAGGAUUGAGCAUCA
B21: chr11:100882373:100882374:+_ENSMUSG00000019302_ENSMUST00000044721|mus_mus|mus_mus_mus_hu_True|48_68 (ssRNA)
RNA: GGGAGUUCUACAGUCCGACGAUCUUCCUGGUUUGUGUUGAUUUCCUUCAGUUCAUUUUCAAUCUUCUCGAAAUUGGCCUCUAAGUCGAUCAUGUCCCGGGGGAAGGGAACCUCUGGGUUUUCACCGGUGUCCAUAAUCGGAAUCAACAGAGGAUUGAGCAUCA
B22: chr10:33190432:33190433:-_ENSG00000150093_ENST00000302278|hu_mus|hu_hu_hu_mus_True|18_18 (ssRNA)
RNA: GGGAGUUCUACAGUCCGACGAUCUACAUUUUCCAAACCUGCAUGUGAAUAAAACCCUGGCCACAGAGCCCCAAAACUACCCUACUGUGACUAAGAUGCUGCUGCUGUGAGCUUGGUUGUUGUGGGACCGCCUGAGUAGGAUUCCAACAGAGGAUUGAGCAUCA

target: T1, UNK ZnF1-3; test: nsRBNS (natural sequence RNA bind-n-seq); RBNS binding buffer (assumed for nsRBNS): 25 mM Tris pH 7.5, 150 mM KCl, 3 mM MgCl2, 0.01% Triton X-100, 500 ug/ml BSA, 20 U/ml SUPERase-In, 4 C; UNK is unkempt and MSI1 is Musashi-1; names of the RNAs are library labels; protein concentration not given here; high values mean tight binding

Binder	binding signal
B1	1.71 enrichment R
B2	0.637 enrichment R
B3	1.27 enrichment R
B4	0.729 enrichment R
B5	0.871 enrichment R
B6	1.76 enrichment R
B7	0.953 enrichment R
B8	0.818 enrichment R
B9	0.696 enrichment R
B10	1.1 enrichment R
B11	1.22 enrichment R
B12	1.41 enrichment R
B13	0.712 enrichment R
B14	0.819 enrichment R
B15	1.74 enrichment R
B16	0.996 enrichment R
B17	0.49 enrichment R
B18	1.31 enrichment R
B19	0.917 enrichment R
B20	1.56 enrichment R
B21	0.595 enrichment R
B22	1.27 enrichment R
